Test results: the supplement of paper PMC3334620
In all, about 33,000 sequences were measured (“E-score (-0.5 to 0.5)”: median about -0.035, highest 2% from about 0.34 on). This is one part of the list.

The sequences below were run against T1, Mot3 (UniProt P54785) (assay: PBM E-score (8-mer binding enrichment) (E-score (-0.5 to 0.5)); higher = stronger / more preferred TF binding; most listed sequences are background and not binding sites). Details: protein concentration: 200 nM; construct: GST-full length.
T1 sequence: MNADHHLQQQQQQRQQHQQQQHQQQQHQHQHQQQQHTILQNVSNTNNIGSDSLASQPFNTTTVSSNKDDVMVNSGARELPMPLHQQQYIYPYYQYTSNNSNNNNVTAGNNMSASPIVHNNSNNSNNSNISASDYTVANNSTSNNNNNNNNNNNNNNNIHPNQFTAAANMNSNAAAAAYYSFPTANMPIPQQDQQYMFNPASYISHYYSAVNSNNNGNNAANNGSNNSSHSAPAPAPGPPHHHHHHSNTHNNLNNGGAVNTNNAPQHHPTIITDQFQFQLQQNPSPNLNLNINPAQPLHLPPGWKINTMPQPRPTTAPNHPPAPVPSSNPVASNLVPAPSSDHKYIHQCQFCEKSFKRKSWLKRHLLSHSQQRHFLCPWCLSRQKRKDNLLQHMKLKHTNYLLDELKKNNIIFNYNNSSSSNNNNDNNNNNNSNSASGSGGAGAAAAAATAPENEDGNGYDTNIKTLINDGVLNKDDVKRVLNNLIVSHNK
Summary of the method: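 Masliner-normalised scans of fluorescent anti-GST signal were the basis for scoring. That signal came from GST-tagged yeast transcription factors applied at about 100-200 nM to double-stranded universal all-10-mer Agilent arrays on fresh or once-stripped slides. Each ungapped eight-base word, pooled with its reverse complement, received an E-score from the Universal PBM Analysis Suite.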

Row | Sequence | PBM E-score
1 | AGACAAAA | 0.0854
2 | ATGCTGGA | -0.0404
3 | CACCGCAA | -0.0276
4 | GCTCCTCC | -0.203
5 | GAGCTTCC | -0.165
6 | AATCTCAA | -0.0782
7 | CCACCTCA | -0.247
8 | ACTTAGCA | -0.0419
9 | GGTGTTAC | 0.164
10 | AACACGAC | 0.344
11 | AACATGGA | 0.312
12 | GATGTGCC | 0.302
13 | GGGATAGA | -0.258
14 | GACCTGGC | -0.201
15 | CACAGTGG | -0.0147
16 | GGACCGAC | -0.193
17 | CAGAATTC | -0.156
18 | AACCCACA | 0.0686
19 | CCCGATCA | -0.266
20 | AAGAAGAC | -0.00584
21 | CCCGACGC | -0.262
22 | CGCAGACC | -0.317

Row | Sequence | PBM E-score
23 | ATCTTCTG | -0.0492
24 | AGATAGCC | -0.145
25 | CCGATAGC | -0.202
26 | AGGAGTAT | -0.025
27 | GGGATCAC | -0.239
28 | CGGCCCTC | -0.317
29 | AGTAACGG | -0.0844
30 | CGCCACAA | -0.0437
31 | ACTCCCCT | -0.3
32 | GATCCTAC | 0.046
33 | CAAAGTGC | -0.0314
34 | AAGGTACT | 0.364
35 | ACTATCAC | -0.0139
36 | GGGGCCGA | -0.299
37 | TAGATCCA | -0.152
38 | CTGTGGCA | -0.125
39 | CATAGTAA | 0.275
40 | CCTTTGAA | 0.00045
41 | ACGGGGGC | -0.202
42 | CGTGATTC | -0.294
43 | TCGCCACA | 0.017
44 | CCAACAGC | -0.0615

Row | Sequence | PBM E-score
45 | GAGGCGGA | -0.339
46 | ATCTGGCG | -0.0356
47 | ACTCGTAA | 0.0814
48 | CCTGTTAG | 0.123
49 | CATATATC | -0.0379
50 | AAGTACCC | -0.0167
51 | AGGTGTAA | 0.26
52 | ATCTCTGG | -0.146
53 | CGCTGGTC | -0.275
54 | ATCGCGAT | -0.106
55 | TGGTGACA | -0.0574
56 | CCAGACAG | -0.104
57 | ACCCCAAG | -0.15
58 | ATCGGACA | -0.0499
59 | CGGAAGCA | 0.0397
60 | ATTGGCGG | -0.109
61 | CCCGGTGC | -0.264
62 | CCCTATAC | -0.173
63 | AAGATCTA | -0.0945
64 | AACGTCCA | 0.0806
65 | TCCGCAAA | -0.144
66 | GCGGCTGA | -0.28

Row | Sequence | PBM E-score
67 | CGGATTAG | -0.104
68 | CGTGAATA | 0.0673
69 | GACCTTAC | -0.0449
70 | GGAGTCCC | -0.249
71 | CCTATACG | 0.0755
72 | TAGTTCAA | -0.122
73 | AGTGGTCG | -0.106
74 | TAGTGAGA | -0.0858
75 | AACTCACG | 0.101
76 | CCAACGGC | -0.262
77 | GTTATAGA | 0.203
78 | AAAAAATG | 0.276
79 | CGGCGGTA | -0.141
80 | GGGAAGGA | 0.0106
81 | ATGGAGCG | -0.165
82 | ATCTAACA | 0.0652
83 | CCCTTCCC | -0.116
84 | GCCTCCTA | -0.00587
85 | TCAATTCA | -0.115
86 | GGGCGAGA | -0.198
87 | AGCTATAT | 0.0605
88 | CGCTGAAA | 0.0848

Row | Sequence | PBM E-score
89 | AGTCTCCC | -0.221
90 | AGCGGACG | -0.165
91 | CTCTTCGA | -0.144
92 | CCGCGAGG | -0.238
93 | ATCCGAAA | -0.134
94 | ACCAAGAC | -0.0753
95 | GTACGGTA | 0.0144
96 | GGCAGGAA | 0.419
97 | CATATGAG | -0.212
98 | GTAGGGAC | -0.157
99 | ACTGGTGC | -0.0536
100 | GAGGCGGC | -0.207
101 | TAGCCTAA | 0.00109
102 | AGATGTCC | -0.271
103 | AAAACCGG | -0.13
104 | AGTGCCAC | -0.35
105 | AAGCTGGG | -0.201
106 | GCGTGCAA | -0.0164
107 | CAGGAAGC | -0.0266
108 | ACTAAATG | -0.0144
109 | GAGTAAAA | 0.13
110 | AAAAAACC | -0.0111
